Assay [1] has as its system Zika virus NS2B-NS3 protease (linked). Put plainly: 384 well plate NINDS AMC confirmatory qHTS for Zika virus inhibitors (AID 1347163). Also: nearly all actives have a fitted effect of over 50% in size. The procedure, abridged:
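Fluorescence at 355/460 nm was read after 25 minutes of cleavage of 30 microM Ac-VKTGKR-AMC at room temperature, in the dark. Before substrate addition, compounds (up to 1 mM final) sat ~15 minutes with 5, 30 or 60 nM linked protease. Signals were normalized to no-enzyme and no-inhibitor wells.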
For orientation: qHTS replaces the single test concentration by a dilution series.

Assay [2] can be described thus: Primary qHTS for inhibitors of La Crosse Virus (LACV) - induced cell death in SH-SY5Y cells (AID 1508616). The procedure, abridged: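 SH-SY5Y, 6000 cells/well; cpd via pin tool in DMSO; LACV 0.01 MOI; 6 d 37C 5% CO2; ATPLite, 5 min RT; luminescence normalized to ±virus DMSO controls.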

In PubChem BioAssay (NCATS) one finds Potency data, which are given here for 2 compounds.

The structures appear in SMILES notation. Results filed as inconclusive are left out. Calls follow the shape of the dose curve; as a rule, active = well fitted inhibition curve with a large enough effect; inconclusive = small, poorly fitted or top-dose-only effect; inactive = no such curve, though single readings can be large or run the other way. Where a structure was tested more than once in an assay, its records may differ in their call. A number of entries come with more than one value. This list holds those alone. There may be further records. Values that stand side by side are repeated measurements (runs, samples, wells, individuals or studies). Records carry a tag for their origin. Letters hold for one entry only.
Potency is read from the fitted curve at half-maximal effect.

As to `CN(C)[C@@H]1C(=O)C(C(N)=O)=C(O)[C@@]2(O)C(=O)C3=C(O)c4c(O)ccc(Cl)c4[C@@H](O)[C@H]3C[C@@H]12`, in assay [1], the Potency result was “active: 100 µM [sample A] and inactive [sample B]”. In the case of `CSc1ccc(C(=O)c2[nH]c(=O)[nH]c2C)cc1`, the Potency entry in assay [2] was “inactive [sample A] and active: 447 nM [sample B]”.
